{
  "source": "PubChem BioAssay AID1508642",
  "about": "(National Center for Advancing Translational Sciences (NCATS), 2021)",
  "note": "In all, about 43,000 compounds went through this assay and about 200 (0.47%) were called active. About 12% were inconclusive and are not listed. Calls follow the shape of the dose curve; as a rule, active = well fitted cell-killing curve with a large enough effect; inconclusive = small, poorly fitted or top-dose-only effect, or effect the other way; inactive = flat fitted curve, though single readings scatter. The list shows a part of the results. % is scaled to controls: 0 for no effect and ±100 for the full control effect.",
  "data": [
    {"test": "Cell viability qHTS assay in S16 Pmp22-F2sN cells; also: nearly all actives have a fitted effect of over 65% in size", "details": "S16 Pmp22-F2sN Schwann cells viability, CellTiter-Glo, 24 h; series mostly up to 57.5 µM; activity change, negative = cytotoxicity: at the top concentration", "method_in_brief": "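S16 Pmp22-F2sN Schwann cells (500-1,000/well) in phenol-red-free DMEM with 10% FBS received 23 nL compound by pin tool for 24 h at 37 °C. Viability was then read as CellTiter-Glo luminescence after 15 min at room temperature.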", "values": [
      {"smiles": "O=C(NC1CC(=O)N(c2ccc(Cl)cc2)C1)c1ccc(S(=O)(=O)N2CCOCC2)cc1", "note": "(configuration not stated)", "activity change, negative = cytotoxicity": "inactive: -1.35%"},
      {"smiles": "COc1cc(C2C(C(=O)Nc3ccccc3)=C(C)Nc3nnnn32)cc(OC)c1OC", "note": "(configuration not stated)", "activity change, negative = cytotoxicity": "inactive: -8.09%"},
      {"smiles": "COc1ccc(-c2noc(CN(C(=O)c3cc(OC)c(OC)cc3OC)C(C)C)n2)cc1", "activity change, negative = cytotoxicity": "inactive: 11.8%"},
      {"smiles": "COCCn1c(=O)[nH]c2cc(C(=O)Nc3cccc(C(C)=O)c3)ccc2c1=O", "activity change, negative = cytotoxicity": "inactive: 11.4%"},
      {"smiles": "COc1ccc(Nc2oc(/C=C/c3ccc(OC)c(OC)c3)nc2C#N)cc1", "activity change, negative = cytotoxicity": "inactive: 0.442%"},
      {"smiles": "Cc1ccc(CN2CCCn3nc(C(=O)NCC(C)c4ccccc4)cc3C2=O)cc1", "note": "(configuration not stated)", "activity change, negative = cytotoxicity": "inactive: -13.7%"},
      {"smiles": "CCc1nn(CC(=O)NCCCOC)c(=O)c2cc3ccccc3n12", "activity change, negative = cytotoxicity": "inactive: -1.8%"},
      {"smiles": "Cc1cc(C)c2oc(C(=O)Nc3ccc(S(=O)(=O)Nc4nccc(C)n4)cc3)cc(=O)c2c1", "activity change, negative = cytotoxicity": "inactive: 3.44%"},
      {"smiles": "CCOc1ccc(S(=O)(=O)Nc2cc(Cl)ccc2OC)c2cccnc12", "activity change, negative = cytotoxicity": "inactive: -16.6%"},
      {"smiles": "Cc1ccc(/C=C/c2onc(C)c2S(=O)(=O)N2CCC(C(=O)Nc3cc(F)ccc3F)CC2)cc1", "activity change, negative = cytotoxicity": "inactive: 11.8%"},
      {"smiles": "O=C(Nc1ccc(Cl)c(C(F)(F)F)c1)C(Cc1ccccc1)NS(=O)(=O)c1cccc2nsnc12", "note": "(configuration not stated)", "activity change, negative = cytotoxicity": "inactive: -20.8%"},
      {"smiles": "CCc1cc2c(cc3c(=O)n(CC(=O)NCCc4ccccc4)ncn32)s1", "activity change, negative = cytotoxicity": "inactive: 0.233%"},
      {"smiles": "CCC(Sc1nc2ncccc2o1)C(=O)Nc1cccc(C)c1", "note": "(configuration not stated)", "activity change, negative = cytotoxicity": "inactive: 5.86%"},
      {"smiles": "COc1ccc2oc(=O)c(-c3nc(-c4ccc(C)c(C)c4)cs3)cc2c1", "activity change, negative = cytotoxicity": "inactive: 6.49%"},
      {"smiles": "Cc1ccc(C)c(NC(=O)c2ccc3c(c2)CCN3S(=O)(=O)c2ccccc2)c1", "activity change, negative = cytotoxicity": "inactive: 2.76%"},
      {"smiles": "O=C(CSc1nccn1Cc1ccc(Cl)cc1)Nc1ccc2c(c1)OCO2", "activity change, negative = cytotoxicity": "inactive: 0.98%"},
      {"smiles": "COc1ccc(NC(=O)C2CCCN(S(=O)(=O)c3c(C)[nH]c(=O)[nH]c3=O)C2)cc1Cl", "note": "(configuration not stated)", "activity change, negative = cytotoxicity": "inactive: 3.69%"},
      {"smiles": "COc1cccc(-n2cc(C(=O)NCc3ccc(C)cc3)c3ccccc3c2=O)c1", "activity change, negative = cytotoxicity": "inactive: -5.37%"},
      {"smiles": "O=C(CN1N=C(c2ccccc2)CCC1=O)NCc1ccc(F)cc1Cl", "activity change, negative = cytotoxicity": "inactive: -1.09%"},
      {"smiles": "CCc1ccc(C2c3c(-c4ccccc4)n[nH]c3C(=O)N2c2ccc(C(=O)O)cc2)cc1", "note": "(configuration not stated)", "activity change, negative = cytotoxicity": "inactive: 12.9%"},
      {"smiles": "CCCN(CCC)CCCNC(=O)c1cn(C)c2ccc(S(=O)(=O)N3CCOCC3)cc2c1=O", "activity change, negative = cytotoxicity": "inactive: 7.54%"},
      {"smiles": "CCn1cc(C(=O)NCCc2ccccc2)c(=O)c2cc(S(=O)(=O)N3CCc4ccccc4C3)ccc21", "activity change, negative = cytotoxicity": "inactive: 3.52%"},
      {"smiles": "COc1ccc(-c2cc(C)no2)cc1S(=O)(=O)N1CCOc2ccc(Cl)cc21", "activity change, negative = cytotoxicity": "inactive: -0.798%"},
      {"smiles": "COC(=O)c1ccc2c(=O)n(CCCCCC(=O)NCc3ccc(OC)cc3)c(=O)[nH]c2c1", "activity change, negative = cytotoxicity": "inactive: -19.9%"},
      {"smiles": "COc1ccc(CCNc2nc(SCc3cccc(F)c3)nc3ccccc23)cc1OC", "activity change, negative = cytotoxicity": "inactive: 13.7%"},
      {"smiles": "CCC(C)NC(=O)CN1C(=O)c2cccnc2Oc2ccc(C)cc21", "note": "(configuration not stated)", "activity change, negative = cytotoxicity": "inactive: 0.378%"},
      {"smiles": "CC(C)c1ccc(NC(=O)CN2C(=O)COc3ccc(S(=O)(=O)N4CCOCC4)cc32)cc1", "activity change, negative = cytotoxicity": "inactive: 5.63%"},
      {"smiles": "Cc1ccccc1C(=O)n1nc(-c2ccco2)nc1NCc1cccs1", "activity change, negative = cytotoxicity": "inactive: 7.46%"},
      {"smiles": "Cc1ccc2[nH]c(CSc3nnc(NC(=O)COc4ccc(F)cc4)s3)cc(=O)c2c1", "activity change, negative = cytotoxicity": "inactive: 0.821%"},
      {"smiles": "COc1ccc(C2CC(=O)N(CC(=O)Nc3ccc(C(C)=O)cc3)c3ccccc3S2)cc1OC", "note": "(configuration not stated)", "activity change, negative = cytotoxicity": "inactive: -0.387%"},
      {"smiles": "CCOC(=O)c1c(C)oc2nc(C)nc(N3CCN(c4cccc(C(F)(F)F)c4)CC3)c12", "activity change, negative = cytotoxicity": "inactive: 4.62%"},
      {"smiles": "CCCN(CCC)CCNC(=O)c1nn(C)c2c1CS(=O)(=O)c1ccccc1-2", "activity change, negative = cytotoxicity": "inactive: -2.8%"},
      {"smiles": "CCOC(=O)c1c(NC(=O)/C=C/c2ccc(Cl)cc2)sc2c1CCC(C)C2", "note": "(configuration not stated)", "activity change, negative = cytotoxicity": "inactive: -10.9%"},
      {"smiles": "COc1ccc(CCC(=O)NC2CC(=O)N(c3ccccc3)C2)cc1", "note": "(configuration not stated)", "activity change, negative = cytotoxicity": "inactive: 8.8%"},
      {"smiles": "O=C(CCCCn1c(=O)c2ccccc2n(Cc2cccc(Cl)c2)c1=O)NCc1ccc2c(c1)OCO2", "activity change, negative = cytotoxicity": "inactive: 19.3%"},
      {"smiles": "COc1ccc(CNC(=O)c2cc(-c3ccc(Cl)cc3)n[nH]2)cc1", "activity change, negative = cytotoxicity": "inactive: -3.47%"},
      {"smiles": "O=C(NCc1nc(-c2ccccc2)no1)c1ccco1", "activity change, negative = cytotoxicity": "inactive: 4.41%"},
      {"smiles": "COc1cc(Cl)c(C)cc1NC(=O)c1nn(C)c2c1CSc1ccccc1-2", "activity change, negative = cytotoxicity": "inactive: 16.6%"},
      {"smiles": "Cc1cc(=O)n2[nH]c(NC(=O)c3cccc(Cl)c3)nc2n1", "activity change, negative = cytotoxicity": "inactive: 7.79%"},
      {"smiles": "COc1ccc(CNC(=O)Cn2ncc3c(=O)oc4ccc(C)cc4c32)c(OC)c1", "activity change, negative = cytotoxicity": "inactive: 5.36%"},
      {"smiles": "COc1ccc(-c2nc(CN3CCC(C(=O)NCc4ccc(F)cc4)CC3)c(C)o2)cc1OC", "activity change, negative = cytotoxicity": "inactive: 5.18%"},
      {"smiles": "CCCC(=O)Nc1nnc(SCc2cc(=O)n3cccc(C)c3n2)s1", "activity change, negative = cytotoxicity": "inactive: -8.73%"},
      {"smiles": "CC1=Nc2cc(C(=O)N3CCCCC3)ccc2Sc2ccc(C)cc21", "activity change, negative = cytotoxicity": "inactive: 12.9%"},
      {"smiles": "Cc1c(C(=O)NCc2ccc(OC(C)C)cc2)sc2ncnc(N(C)C3CCCCC3)c12", "activity change, negative = cytotoxicity": "inactive: 3.87%"},
      {"smiles": "COc1ccccc1CCNC(=O)CCCn1c(=O)c2cccn2c2cccnc21", "activity change, negative = cytotoxicity": "inactive: 18.6%"},
      {"smiles": "CCOC(=O)c1ccc(Nc2nc3ccccc3n3c(C)nnc23)cc1", "activity change, negative = cytotoxicity": "inactive: -2.55%"},
      {"smiles": "CCN1CCN(CCCNC(=O)c2cnn(-c3ccc(OC)cc3)c2C2CCN(C(=O)OC(C)(C)C)CC2)CC1", "activity change, negative = cytotoxicity": "inactive: -3.18%"}
    ]}
  ]
}
